Whole data set: some 33,000 sequences, median “E-score (-0.5 to 0.5)” near -0.035, cut for the highest 2% near 0.34. The list shows a part of the results.
Target: T1, Mot3 (UniProt P54785)
T1 sequence: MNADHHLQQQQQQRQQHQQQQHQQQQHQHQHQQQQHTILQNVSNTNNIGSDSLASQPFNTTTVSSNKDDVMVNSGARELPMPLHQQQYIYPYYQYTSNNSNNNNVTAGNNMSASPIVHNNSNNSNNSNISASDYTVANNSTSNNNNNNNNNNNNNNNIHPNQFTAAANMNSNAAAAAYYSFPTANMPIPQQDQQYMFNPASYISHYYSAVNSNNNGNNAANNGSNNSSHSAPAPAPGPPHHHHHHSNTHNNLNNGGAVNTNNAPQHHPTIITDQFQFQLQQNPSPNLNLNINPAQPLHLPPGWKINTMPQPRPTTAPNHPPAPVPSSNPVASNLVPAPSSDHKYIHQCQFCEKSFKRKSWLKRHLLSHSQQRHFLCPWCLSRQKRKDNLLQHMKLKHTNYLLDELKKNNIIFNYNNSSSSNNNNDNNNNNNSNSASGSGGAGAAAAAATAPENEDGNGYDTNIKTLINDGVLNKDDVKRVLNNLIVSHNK
Test: PBM E-score (8-mer binding enrichment) (E-score (-0.5 to 0.5)); higher = stronger / more preferred TF binding; most listed sequences are background and not binding sites
Details: protein concentration: 200 nM; construct: GST-full length
Summary of the method: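 Bound GST-tagged yeast transcription factors, applied at about 100-200 nM to double-stranded universal all-10-mer Agilent arrays, were detected with fluorescent anti-GST. Scans were normalised with masliner. A modified Wilcoxon-Mann-Whitney statistic, the E-score, was assigned to each ungapped eight-base word pooled with its reverse complement by the Universal PBM Analysis Suite.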

Compared with GTATAACA, AGACGGCT is lower in “PBM E-score” value: 0.261 for the first, -0.243 for the second.

First: GCCGGGTA
Second: GCTGGAGA
The “PBM E-score” value of the first is higher: -0.185 for the first, -0.261 for the second.

First: AACATCCT
Second: GGCGTGAC
The “PBM E-score” value of the first is higher: 0.0916 for the first, 0.017 for the second.

Going from GATGCCGA to AATGTTTG, the “PBM E-score” value rises from -0.192 to 0.0834.

First: GCCTAGTA
Second: CATTATAA
The “PBM E-score” value of the first is higher: 0.0658 for the first, -0.0197 for the second.

First: AGAGTTAC
Second: GATGGAAC
The “PBM E-score” value of the first is higher: -0.0569 for the first, -0.0944 for the second.

First: ACAGTTGG
Second: AAGCATAG
The “PBM E-score” value of the first is lower: -0.103 for the first, -0.0156 for the second.

Compared with ATATCGAG, ACGAAGCA is higher in “PBM E-score” value: -0.106 for the first, 0.0433 for the second.

First: ATTATCGA
Second: GGGGTCGA
The “PBM E-score” value of the first is lower: -0.109 for the first, -0.0837 for the second.

First: GACTGAGC
Second: CATCATAC
The “PBM E-score” value of the first is lower: -0.19 for the first, 0.116 for the second.

First: GCAAATAC
Second: CCCTCCTA
The “PBM E-score” value of the first is higher: 0.154 for the first, -0.126 for the second.

First: AATGCTCT
Second: CACCACGC
The “PBM E-score” value of the first is higher: 0.0141 for the first, -0.211 for the second.

Compared with CATAAGCC, CAACGAGG is higher in “PBM E-score” value: -0.0209 for the first, 0.118 for the second.

Compared with CTGGCATA, TCTAGTCA is higher in “PBM E-score” value: -0.101 for the first, -0.0732 for the second.

Going from GTACATGA to GAGGGTCA, the “PBM E-score” value falls from 0.328 to -0.122.

First: TGCTCAAA
Second: CAACGAGA
The “PBM E-score” value of the first is lower: -0.051 for the first, 0.0672 for the second.

First: CCGCGGTA
Second: GCTCTTAC
The “PBM E-score” value of the first is lower: -0.105 for the first, 0.158 for the second.

Compared with CCCATACG, TAGACAGA is lower in “PBM E-score” value: -0.0692 for the first, -0.078 for the second.

First: ACCGATTG
Second: GTAACGAA
The “PBM E-score” value of the first is higher: 0.0542 for the first, 0.00874 for the second.

First: AACATGCT
Second: AGATTCAA
The “PBM E-score” value of the first is higher: 0.308 for the first, 0.0386 for the second.

Going from CAATATTG to AATTGTCA, the “PBM E-score” value falls from 0.154 to 0.139.

Compared with CGGGGCCC, AAAAGAGT is higher in “PBM E-score” value: -0.185 for the first, -0.00942 for the second.

First: AGAGAGGC
Second: CAGCCAGA
The “PBM E-score” value of the first is higher: -0.0233 for the first, -0.3 for the second.

Compared with GAAAGCTC, CGTATGCA is higher in “PBM E-score” value: -0.0557 for the first, -0.0506 for the second.

Going from GAGATACA to AGGATCAG, the “PBM E-score” value falls from 0.0845 to -0.0425.

Going from CTGCAATA to TTCCAGAA, the “PBM E-score” value falls from 0.0641 to 0.0149.

First: CTTACCCA
Second: GATAGGAA
The “PBM E-score” value of the first is lower: -0.0718 for the first, 0.197 for the second.

First: TGTGACAA
Second: GGATTACC
The “PBM E-score” value of the first is higher: -0.0111 for the first, -0.0377 for the second.

First: ACTTCAGC
Second: AAGCGTGG
The “PBM E-score” value of the first is higher: -0.21 for the first, -0.231 for the second.

Compared with AAGAAATT, GACCTACA is higher in “PBM E-score” value: 0.0402 for the first, 0.045 for the second.

Going from GACACGGA to CCAATACG, the “PBM E-score” value falls from 0.22 to 0.184.

Going from AGAACGCT to AAAGACGT, the “PBM E-score” value rises from -0.186 to 0.0165.

Going from CATGGTAG to GATACAAA, the “PBM E-score” value rises from 0.0641 to 0.113.

Compared with CAGCGGGG, ATCCTAAG is higher in “PBM E-score” value: -0.285 for the first, -0.178 for the second.

Compared with ACAGCAAC, GTTTCCTA is higher in “PBM E-score” value: 0.0245 for the first, 0.411 for the second.

Compared with CATTGTAC, CGTATCAC is lower in “PBM E-score” value: 0.193 for the first, 0.0157 for the second.

Compared with AAAACGGA, AGTATACA is higher in “PBM E-score” value: 0.0813 for the first, 0.192 for the second.

Going from ACTGTTTG to GACTTAAA, the “PBM E-score” value falls from 0.193 to -0.0284.

First: ACTCTCTC
Second: ATGCGTTG
The “PBM E-score” value of the first is lower: -0.127 for the first, 0.0859 for the second.

Compared with GCATCCAC, GGTTTAAC is higher in “PBM E-score” value: -0.101 for the first, 0.178 for the second.

First: CTGGGAAC
Second: ACTTTGGA
The “PBM E-score” value of the first is lower: -0.0681 for the first, -0.0655 for the second.

Compared with CTTAAGCC, CCCAACGC is higher in “PBM E-score” value: -0.114 for the first, -0.095 for the second.

First: ACTTCACA
Second: CAACATAC
The “PBM E-score” value of the first is lower: 0.177 for the first, 0.179 for the second.

Going from GAGTGCGA to AATTGTAC, the “PBM E-score” value rises from -0.152 to 0.144.

Going from ACGGCCCG to CAGAGCAG, the “PBM E-score” value rises from -0.171 to -0.0143.

Going from ACAAGAAT to GACACCTA, the “PBM E-score” value falls from 0.188 to 0.0394.

Compared with AATCTACC, GTCTGTTA is higher in “PBM E-score” value: 0.0926 for the first, 0.178 for the second.

First: GTTCATAA
Second: CTGTGGTA
The “PBM E-score” value of the first is lower: -0.0429 for the first, -0.0245 for the second.

First: AACCTTAC
Second: GCCAGAAA
The “PBM E-score” value of the first is higher: 0.0962 for the first, -0.0567 for the second.

Compared with ACTGTCCG, TACAACAA is higher in “PBM E-score” value: -0.0105 for the first, 0.301 for the second.

First: CGCTGAGA
Second: TGCGTACA
The “PBM E-score” value of the first is lower: -0.199 for the first, 0.257 for the second.

Going from CTATGAAA to ATATAACA, the “PBM E-score” value rises from -0.162 to 0.295.

Compared with CCATATAC, CAGCAGTC is lower in “PBM E-score” value: 0.104 for the first, -0.293 for the second.

Compared with ACACTTCT, AGGGCGGC is lower in “PBM E-score” value: 0.133 for the first, -0.112 for the second.

Compared with ATTGATAG, AGATAATC is lower in “PBM E-score” value: 0.112 for the first, -0.0261 for the second.

First: GATCCAGA
Second: CAGCGATA
The “PBM E-score” value of the first is higher: -0.0452 for the first, -0.0991 for the second.

Going from CTCTGGTC to AAGGCAGA, the “PBM E-score” value rises from -0.215 to 0.0903.

Compared with GTCTCCAC, ACGTACTC is higher in “PBM E-score” value: -0.115 for the first, 0.102 for the second.

First: CCCTATAA
Second: TCCATAAA
The “PBM E-score” value of the first is higher: -0.151 for the first, -0.17 for the second.

Compared with CGATCCTC, AATGGTTA is higher in “PBM E-score” value: -0.175 for the first, 0.15 for the second.

First: CCACGCCG
Second: AGCCATAT
The “PBM E-score” value of the first is higher: -0.206 for the first, -0.215 for the second.

First: ATCGTGCA
Second: ATCGAGAC
The “PBM E-score” value of the first is higher: 0.122 for the first, -0.144 for the second.

First: CGTGTGAA
Second: GCGATCTA
The “PBM E-score” value of the first is higher: 0.309 for the first, -0.138 for the second.

First: CCAAGGAG
Second: CAGGTTCA
The “PBM E-score” value of the first is lower: -0.129 for the first, 0.136 for the second.

First: CTGGACTA
Second: CTTCGCGC
The “PBM E-score” value of the first is lower: -0.109 for the first, -0.0309 for the second.

First: CAACACGG
Second: ACGGACAC
The “PBM E-score” value of the first is higher: 0.302 for the first, 0.0821 for the second.

Compared with CTCCTCGA, CCATCGAG is higher in “PBM E-score” value: -0.19 for the first, 0.0666 for the second.

Compared with TATTAATA, CCGCTCAG is lower in “PBM E-score” value: 0.151 for the first, 0.0688 for the second.

Going from CCAACTAC to AAGATTCA, the “PBM E-score” value rises from 0.0858 to 0.124.

Going from AAGACTAT to CAGCCTAA, the “PBM E-score” value rises from -0.00527 to 0.00627.

First: AAGGGACT
Second: GACACAGA
The “PBM E-score” value of the first is lower: -0.0592 for the first, -0.043 for the second.

Compared with CGGGTAAA, AGCGCGGC is lower in “PBM E-score” value: 0.151 for the first, -0.0474 for the second.

Going from CCCGGGTC to ATTTGGTA, the “PBM E-score” value rises from -0.231 to -0.0233.

First: CGATTAAA
Second: GATCTGAC
The “PBM E-score” value of the first is higher: 0.0951 for the first, -0.0696 for the second.

First: CTACTCTA
Second: ATTTTTGA
The “PBM E-score” value of the first is lower: -0.00664 for the first, 0.0121 for the second.

First: AAGTGGTA
Second: ACCGAGGG
The “PBM E-score” value of the first is higher: 0.0297 for the first, -0.287 for the second.

Going from CCTCACCA to AAGAAATG, the “PBM E-score” value rises from -0.0744 to 0.0181.

Compared with AGGGCTCG, ATATGCAA is higher in “PBM E-score” value: -0.209 for the first, -0.0574 for the second.

First: ATATTATG
Second: GTCGCTAA
The “PBM E-score” value of the first is higher: 0.196 for the first, -0.0236 for the second.

First: ACTTAATG
Second: AACTATTA
The “PBM E-score” value of the first is lower: 0.0209 for the first, 0.124 for the second.

Compared with CCAACGAG, CTGGTCCC is lower in “PBM E-score” value: -0.157 for the first, -0.265 for the second.

Compared with CTATTGAG, GATTAATC is higher in “PBM E-score” value: -0.129 for the first, -0.0124 for the second.

First: AGCGTTCC
Second: CATCCTCG
The “PBM E-score” value of the first is higher: 0.181 for the first, 0.00911 for the second.

First: AATCCCAA
Second: ATCAAACA
The “PBM E-score” value of the first is lower: -0.0822 for the first, 0.0614 for the second.

Compared with ATATTGAT, CCTCGTTC is higher in “PBM E-score” value: -0.152 for the first, -0.11 for the second.

Going from TATTACGA to ACGCATAT, the “PBM E-score” value falls from 0.209 to 0.174.

— the supplement of paper PMC3334620
